# Laboratory results published in publication PMC4336329 (PLoS ONE, 2015).
# Out of some 310,000 compounds screened, about 14,000 (4.5%) showed an effect of 50% or more. Effects have a minus sign here. This is one part of the list.
# Target: human ether-à-go-go-related gene (hERG) potassium channel (human, UniProt Q12809)
# Experiment: primary screen, population patch clamp on CHO cells stably expressing hERG
# 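Note: peak tail current of the secondary pulse compared with the same well before compound.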
# Sequence of human ether-à-go-go-related gene (hERG) potassium channel (Q12809 whole entry, looked up): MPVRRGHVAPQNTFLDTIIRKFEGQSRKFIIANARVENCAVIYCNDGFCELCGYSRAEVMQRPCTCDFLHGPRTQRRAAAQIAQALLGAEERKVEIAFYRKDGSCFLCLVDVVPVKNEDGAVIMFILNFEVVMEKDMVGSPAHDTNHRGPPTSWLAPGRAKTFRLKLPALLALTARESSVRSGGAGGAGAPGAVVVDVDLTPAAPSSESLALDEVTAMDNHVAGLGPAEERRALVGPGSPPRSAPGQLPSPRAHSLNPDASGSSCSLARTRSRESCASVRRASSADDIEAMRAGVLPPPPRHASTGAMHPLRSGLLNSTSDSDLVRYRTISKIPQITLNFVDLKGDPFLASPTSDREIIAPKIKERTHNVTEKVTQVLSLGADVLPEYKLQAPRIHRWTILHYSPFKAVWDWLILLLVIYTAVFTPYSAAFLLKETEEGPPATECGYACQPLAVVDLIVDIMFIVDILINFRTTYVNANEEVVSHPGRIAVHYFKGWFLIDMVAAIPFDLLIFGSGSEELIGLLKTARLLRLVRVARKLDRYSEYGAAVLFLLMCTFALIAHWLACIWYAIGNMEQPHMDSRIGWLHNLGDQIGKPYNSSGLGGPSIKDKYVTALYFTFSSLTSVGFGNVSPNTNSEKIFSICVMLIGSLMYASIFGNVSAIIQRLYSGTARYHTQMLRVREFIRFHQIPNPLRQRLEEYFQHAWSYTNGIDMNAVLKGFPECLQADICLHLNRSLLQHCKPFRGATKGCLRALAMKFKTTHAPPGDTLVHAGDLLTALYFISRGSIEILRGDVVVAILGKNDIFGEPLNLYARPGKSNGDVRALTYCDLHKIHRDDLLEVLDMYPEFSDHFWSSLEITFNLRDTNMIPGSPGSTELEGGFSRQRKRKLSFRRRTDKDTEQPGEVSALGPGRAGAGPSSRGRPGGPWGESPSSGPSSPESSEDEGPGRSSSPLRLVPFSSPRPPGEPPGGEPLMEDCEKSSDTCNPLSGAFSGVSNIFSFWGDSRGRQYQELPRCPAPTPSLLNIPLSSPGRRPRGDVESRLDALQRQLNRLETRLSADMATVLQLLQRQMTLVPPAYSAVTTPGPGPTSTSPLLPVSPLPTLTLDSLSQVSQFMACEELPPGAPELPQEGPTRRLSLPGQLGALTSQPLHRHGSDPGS
row,SMILES,"hERG current change (%, negative = inhibition) at 10uM [%]"
1,CCOC(=O)c1nnn(-c2nonc2N)c1-c1ccc(F)cc1,2.11
2,Cc1nn(-c2ccc(C(=O)N3CCN(S(=O)(=O)c4ccccc4C(F)(F)F)CC3)cc2)c(C)c1Cl,-23.8
3,Cc1cccc(NC(=S)N2CCC(N(C)CC3CCCO3)CC2)c1C (centres unmarked),-12.5
4,O=C(Nc1cccc(Cl)c1)OCCOc1ccccc1,23
5,COc1ccc(C(=O)C(OC(=O)c2ccc(C)c(NC(C)=O)c2)c2ccccc2)cc1 (centres unmarked),-7.69
6,COc1ccccc1NS(=O)(=O)c1cc(NC(=O)C2CCCC2)ccc1N1CCOCC1,-3.08
7,Cc1cc(-c2ccc(Cl)cc2)c(C#N)c(N)n1,-5.49
8,CN(C)CCOC(=O)c1ccc2[nH]c3c(c2c1)CSCC3.Cl,12
9,O=C(NNC(=S)NCc1ccco1)c1ccc(Cl)s1,14.5
10,CCN(CC1CCCN(CCc2cccc(F)c2)C1)C(=O)c1cc2ccccc2o1 (centres unmarked),-79.6
11,COCCNC(=O)c1ccc(N2CC3CC(C2)c2cccc(=O)n2C3)c([N+](=O)[O-])c1 (centres unmarked),21.4
12,COc1ccc(S(=O)(=O)Nc2cccc(C(C)=O)c2)cc1Br,-7.05
13,Cc1ccc(S(=O)(=O)N2CCN(C(=O)CCc3c[nH]c4ccccc34)CC2)cc1,-23.1
14,CCC(=O)Nc1ccc(C(=O)N/N=C/c2ccc([N+](=O)[O-])cc2)cc1,1.92
15,COc1ccc(S(=O)(=O)N2CCCCC2C(=O)O)cc1 (centres unmarked),-0.249
16,N#Cc1c(N)n(-c2ccc(C(=O)O)cc2)c2nc3ccccc3nc12,-4.58
17,O=C(c1ccccc1)c1ncc[nH]1,26.1
18,CN1CCCC1c1cccnc1 (centres unmarked),15.6
19,CCOC(=O)[C@H]1[C@H]2COc3ccc(C)cc3[C@@H]2N2C(=O)CN(Cc3ccc(C)cc3)C(=O)[C@@]12C,4.36
20,C/C(=N\NC(=O)c1ccc(C)cc1C)c1ccc2c(c1)OCO2,0.256
21,NC(=O)C1CCN(C(=O)c2ccc(NS(=O)(=O)c3ccc(F)cc3)cc2)CC1,6.76
22,Cc1ccc(-n2nc3c(SCCN4CCOCC4)nnc(C)c3c2C)cc1,-28.8
23,N#CCC(=O)Nc1ccc(C(=O)N2CCN(c3ccccn3)CC2)cc1,18.4

row,SMILES,"hERG current change (%, negative = inhibition) at 10uM [%]"
1,O=C1Nc2ccccc2O/C1=C\c1c(F)cccc1Cl,11.5
2,CC(C)C(=O)Nc1ccc2nn(-c3ccccc3)nc2c1,5.03
3,CCOc1ccc(NC(=O)CN(C)C(=O)c2cc3c(s2)CCC(C)C3)cc1OCC (centres unmarked),-12.6
4,CCOC(=O)c1oc2ccccc2c1NC(=O)c1ccc(S(=O)(=O)N(C)C)cc1,13
5,COc1ccc(/C=N/Nc2ccccc2C(=O)O)cc1Cn1cc([N+](=O)[O-])cn1,-9.05
6,Cn1c(=O)c2c(nc3sccn32)n(C)c1=O,-9.86
7,CN(C)CCCNC(=O)C1(O)c2cc(Br)ccc2NC(=O)N1c1c(F)cccc1F (centres unmarked),7.1
8,O=C(NC1CCCC1)c1ccc(COCC(F)(F)C(F)F)o1,-13.1
9,O=C1NC2(CCCCCC2)C(=O)N1Cc1ccccc1Cl,5.29
10,CN(C)CCN(Cc1ccco1)S(=O)(=O)c1ccc(-c2ccc(=O)[nH]n2)s1,-64.4
11,CC1(C)C(=O)Nc2ccccc2N1C(=O)CSc1nc(-c2ccccc2)cs1,3.65
12,Cc1cc(OCc2nn[nH]n2)c2c(-c3ccccc3)cc(=O)oc2c1,-6.11
13,CCc1ccc(N2C(=O)/C(=C/c3cccs3)N(CC(=O)OC)C2=S)cc1,0.511
14,Cn1c(SCC(=O)NC(=O)NCc2ccco2)nnc1-c1ccccc1,3.4
15,C/C(=N\NC(=S)NCc1ccccc1)c1ccccc1F,9.46
16,COc1cc(NC(=O)c2cccc(COCC(F)(F)C(F)F)c2)cc(OC)c1OC,-18.5
17,CN(C(=O)C1CCOC1)c1nnc(-c2ccncc2)s1 (centres unmarked),5.62
18,Cc1ccc(/C=N/NC(=O)C(=O)N/N=C/c2ccc(C)o2)o1,1.84
19,CCC(C)c1ccccc1N1CC(C(=O)N2CCN(C(=O)c3ccco3)CC2)CC1=O (centres unmarked),-12.6
20,Cc1ccc(CN2C3=NC(=O)CN3c3ccccc32)cc1,-5.41
21,Cc1ccc(-c2nc(CN(Cc3cnn(C)c3)C(C)C)c(C)o2)o1,-21.5
22,CCOC(=O)C(Cc1c(F)cccc1Cl)c1ccnc2nc(N)nn12 (centres unmarked),0.868
23,Brc1ccc(-c2cn3cccnc3n2)cc1,6.71

row,SMILES,"hERG current change (%, negative = inhibition) at 10uM [%]"
1,Cc1[nH]c2ccccc2c1C(=O)CN1CC(C)OC(C)C1 (centres unmarked),13.4
2,Brc1ccc(N=Cc2ccccn2)cc1,-0.925
3,C/C(=N/OC(=O)c1ccc(F)cc1)c1ccc(C)cc1,12.3
4,O=C(CNS(=O)(=O)c1ccccc1Br)OCC(=O)N1CCc2ccccc21,-9.13
5,COC(=O)c1ccccc1NC(=O)CSc1ccccn1,-7.67
6,CCc1ccc2nc(Nc3ncc(C(C)=O)c(C)n3)nc(C)c2c1,8.74
7,CCc1ccc(/C(C)=N/NC(=O)CNC(=O)/C=C/c2ccco2)cc1,5.75
8,CCCCNC(=O)c1onc(CSc2cc(C)cc(C)c2)c1C(=O)O,7.84
9,O=C(Nc1ccc(-c2noc(CCc3ccccc3)n2)cc1)c1cccnc1,-8.2
10,CC1=C(C#N)CCC(=O)N1Cc1ccc(C)cc1,6.81
11,CC(C)(C)NC(=O)CN(C(=O)C(=O)Nc1ccc2c(c1)OCCO2)C(C)(C)C,-3.18
12,Cc1nc(Cl)sc1C(=O)Nc1ccc(C(C)(C)C)cc1,3.09
13,Nc1c(N(Cc2ccco2)C(=O)COc2ccccc2F)c(=O)[nH]c(=O)n1Cc1ccccc1,0.883
14,O=C(Cc1ccccc1)N/N=C/C=C/c1cccc([N+](=O)[O-])c1,-1.29
15,COc1ccc(CCNCC(O)Cn2ccc3ccccc32)cc1OC (centres unmarked),-30.6
16,N/C(CCCN1CCCCC1)=N/O,12.4
17,O=C(CN(c1ccccn1)S(=O)(=O)c1ccc(F)cc1)Nc1ccccc1,7.79
18,Cc1ccc2cc3cc(C(=O)NCCCN4CCCCCC4)oc3nc2c1,-50.6
19,COC(=O)c1ccc(OC(C)C(=O)c2ccc(C)cc2)cc1 (centres unmarked),-21.5
20,Cc1cc(Oc2ccc(N)cn2)cc(C)c1Cl,-8.95
21,O=C(CN(C(=O)CNS(=O)(=O)c1ccc(F)cc1)c1ccc(F)cc1)NCc1ccco1,2.45
22,CCOC(=O)N1CCN(C(=O)COc2ccc(Cl)cc2)CC1,-10.3
23,CCCCN(C(=O)c1ccc2c(c1)OCO2)c1c(N)n(CC(C)C)c(=O)[nH]c1=O,-6.58

row,SMILES,"hERG current change (%, negative = inhibition) at 10uM [%]"
1,O=C(O)COc1ccc(NC(=O)c2ccc3c(c2)C(=O)N(Cc2ccccc2)C3=O)cc1,4.46
2,CN(CC(=O)NC1CCCCCC1)S(=O)(=O)c1ccc(Br)cc1,9.13
3,CCOC(=O)N1CCN(Cc2c(F)cccc2F)CC1,18.5
4,CCOCCCN(CCC#N)C(=O)C1CCN(S(=O)(=O)c2ccc(-n3cnnn3)cc2)CC1,-11.7
5,N#CC(C#N)=CNc1cccnc1,5.48
6,O=C(O)[C@@H]1CCCN(S(=O)(=O)c2cccc3cccnc23)C1,11.6
7,CSCCC(NC(=O)/C(=C/c1ccco1)NC(=O)c1ccc(Br)o1)C(=O)O (centres unmarked),5.43
8,COc1ccccc1-n1c(=S)sc2c(=O)n(Cc3ccco3)c(SC)nc21,-4.31
9,C[C@@H]1CN(C(=O)c2nc3ccc(Cl)cn3c2CN[C@H]2CCCCNC2=O)C[C@H](C)O1,11.4
10,CCCCCCC1CCC(c2nc(-c3ccncc3)no2)CC1 (centres unmarked),3.95
11,Cc1cc(SCCOc2ccccc2)nc(N)n1,3.41
12,O=C(NCC(=O)N1CCOCC1)c1ccc(Cl)cc1,-4.7
13,O=C1CC(C(=O)Nc2ccc(O)c(C(=O)O)c2)C(c2ccccc2)O1 (centres unmarked),1.11
14,Cc1cccc(C)c1NC(=O)CN(C)C(=O)c1ccc(COc2ccccc2)cc1,-11.2
15,Nc1nc(COc2ccc3ccccc3c2)cs1,-15.1
16,O=C(COc1ccc2oc(-c3ccccc3)cc(=O)c2c1)NCc1ccco1,14.7
17,O=C1CC2(CCCC2)C(=O)N1c1ccc(S(=O)(=O)NCC2CC2)cc1Cl,-0.753
18,O=C(CCS(=O)(=O)c1cccc2nonc12)N1CCOCC1,14.6
19,Cc1cccc(N(C(=O)Cn2nnc3ccccc32)C(C(=O)NCc2ccco2)c2ccncc2)c1C (centres unmarked),-6.22
20,O=C(Nc1ccc(Cl)c(S(=O)(=O)N2CCOCC2)c1)c1cc(-c2ccccn2)nc2ccccc12,-32.7
